A lower IC50 marks a more sensitive line; fits outside the tested doses are given as limits. For AUC the same curve is integrated over the 256-fold range of doses and scaled to a fraction; it is 1 without any effect and falls as sensitivity rises. For some of these results: Any top dose called inferred was calculated from the reported fits.
What was measured:
Assay in all cases: Viability of human cancer cell lines after 72 h of drug (GDSC screen)
CX-5461 = compound: Cc1cnc(CNC(=O)c2c(=O)c3ccc(N4CCCN(C)CC4)nc3n3c2sc2ccccc23)cn1 [CX-5461]; settings: top dose 10.24 µM; top dose inferred
Procedure: (§1)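 Human cancer cell lines in 384-well plates, medium with 10% serum, drug for 72 h over a 256-fold dose range (nine 2-fold or five 4-fold steps up to the top dose). Adherent lines were fixed and stained with the nucleic acid dye Syto60, suspension lines read with resazurin; signal relative to control wells, capped at 0 and 100%. One two-parameter sigmoid per drug and line, fitted in a mixed model over all curves with the slope shared within a line.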

CP724714 = compound: COCC(=O)NC/C=C/c1ccc2ncnc(Nc3ccc(Oc4ccc(C)nc4)c(C)c3)c2c1 [CP724714]; settings: top dose 10.24 µM; top dose inferred
Procedure: as §1

STF-62247 = compound: Cc1cccc(Nc2nc(-c3ccncc3)cs2)c1 [STF-62247]; settings: top dose 10.24 µM; top dose inferred
Procedure: as §1

Bortezomib = compound: CC(C)C[C@H](NC(=O)[C@H](Cc1ccccc1)NC(=O)c1cnccn1)B(O)O [Bortezomib]; settings: top dose 0.02 µM
Procedure: as §1

Obatoclax mesylate = compound: COC1=CC(c2cc3ccccc3[nH]2)=N/C1=C\c1[nH]c(C)cc1C [Obatoclax mesylate]; settings: top dose 16 µM
Procedure: as §1

Paclitaxel = compound: CC(=O)O[C@H]1C(=O)[C@@]2(C)[C@H]([C@H](OC(=O)c3ccccc3)[C@]3(O)C[C@H](OC(=O)[C@H](O)[C@@H](NC(=O)c4ccccc4)c4ccccc4)C(C)=C1C3(C)C)[C@]1(OC(C)=O)CO[C@@H]1C[C@@H]2O [Paclitaxel]; settings: top dose 0.1024 µM
Procedure: as §1

Row | Cell Line | AUC (CX-5461) | IC50 (CX-5461) | AUC (CP724714) | IC50 (CP724714) | AUC (STF-62247) | IC50 (STF-62247) | AUC (Bortezomib) | IC50 (Bortezomib) | AUC (Obatoclax mesylate) | IC50 (Obatoclax mesylate) | AUC (Paclitaxel) | IC50 (Paclitaxel)
1 | BC-1 (B-cell lymphoma, suspension) | 0.845 | 5830 nM | 0.938 | > 10200 nM | 0.956 | > 10200 nM | 0.61 | 2.39 nM | 0.128 | 87.4 nM |  | 
2 | CAL-148 (breast, suspension) | 0.624 | 1370 nM | 0.986 | > 10200 nM | 0.989 | > 10200 nM | 0.938 | > 20 nM | 0.519 | 1120 nM |  | 
3 | CCRF-CEM (lymphoblastic leukaemia, suspension) | 0.256 | 148 nM | 0.979 | > 10200 nM | 0.971 | > 10200 nM | 0.426 | 0.811 nM | 0.073 | < 62.5 nM |  | 
4 | D-392MG (glioma, adherent) | 0.965 | > 10200 nM | 0.978 | > 10200 nM | 0.965 | > 10200 nM | 0.504 | 1.29 nM | 0.547 | 1400 nM |  | 
5 | D-542MG (glioma, adherent) | 0.984 | > 10200 nM | 0.974 | > 10200 nM | 0.984 | > 10200 nM | 0.323 | 0.357 nM | 0.296 | 231 nM |  | 
6 | DMS-114 (small cell lung carcinoma, adherent) | 0.985 | > 10200 nM | 0.968 | > 10200 nM | 0.977 | > 10200 nM | 0.805 | 11.9 nM | 0.563 | 1530 nM |  | 
7 | DU-4475 (breast, suspension) | 0.469 | 537 nM | 0.963 | > 10200 nM | 0.97 | > 10200 nM | 0.513 | 1.35 nM | 0.204 | 168 nM |  | 
8 | ECC12 (stomach, suspension) |  |  |  |  |  |  | 0.525 | 1.49 nM |  |  |  | 
9 | ES-2 (ovary, adherent) | 0.642 | 1500 nM | 0.976 | > 10200 nM | 0.991 | > 10200 nM | 0.564 | 1.83 nM | 0.293 | 285 nM |  | 
10 | EVSA-T (breast, adherent) | 0.983 | > 10200 nM | 0.989 | > 10200 nM | 0.975 | > 10200 nM | 0.651 | 3.05 nM | 0.455 | 766 nM |  | 
11 | EW-22 (Ewing sarcoma, adherent) |  |  |  |  |  |  | 0.966 | > 20 nM |  |  |  | 
12 | HCC2218 (breast, suspension) | 0.902 | > 10200 nM | 0.308 | 160 nM | 0.967 | > 10200 nM | 0.844 | > 20 nM | 0.623 | 2390 nM |  | 
13 | HCC2998 (large intestine, adherent) | 0.953 | > 10200 nM | 0.988 | > 10200 nM | 0.985 | > 10200 nM | 0.344 | 0.468 nM | 0.067 | < 62.5 nM |  | 
14 | HH (T-cell leukaemia, suspension) | 0.751 | 4410 nM | 0.971 | > 10200 nM | 0.836 | > 10200 nM |  |  | 0.49 | 929 nM | 0.763 | 49 nM
15 | HOP-62 (lung adenocarcinoma, adherent) | 0.758 | 3540 nM | 0.973 | > 10200 nM | 0.96 | > 10200 nM |  |  | 0.146 | 79.7 nM | 0.591 | 11.3 nM
16 | IA-LM (large cell lung carcinoma, adherent) | 0.922 | > 10200 nM | 0.979 | > 10200 nM | 0.983 | > 10200 nM |  |  | 0.149 | 68.6 nM | 0.409 | 3.49 nM
17 | JAR (urogenital system, adherent) | 0.988 | > 10200 nM | 0.974 | > 10200 nM | 0.975 | > 10200 nM | 0.836 | 12.9 nM | 0.943 | > 16000 nM |  | 
18 | JVM-2 (lymphoid neoplasm, suspension) | 0.753 | 4130 nM | 0.966 | > 10200 nM | 0.933 | > 10200 nM |  |  | 0.677 | 3520 nM | 0.953 | > 102 nM
19 | K-562 (chronic myeloid leukaemia, suspension) | 0.929 | > 10200 nM | 0.959 | > 10200 nM |  |  | 0.764 |  | 0.581 | 1650 nM |  | 
20 | KARPAS-299 (anaplastic large cell lymphoma, suspension) | 0.971 | > 10200 nM | 0.984 | > 10200 nM | 0.81 | 4300 nM |  |  | 0.8 | 6270 nM | 0.828 | 49.1 nM
21 | KARPAS-422 (B-cell lymphoma, suspension) | 0.894 | > 10200 nM | 0.987 | > 10200 nM | 0.978 | > 10200 nM |  |  | 0.212 | 145 nM | 0.802 | 49.4 nM
22 | KARPAS-620 (haematopoietic neoplasm, suspension) | 0.944 | > 10200 nM | 0.957 | > 10200 nM | 0.964 | > 10200 nM |  |  | 0.108 | 70.7 nM | 0.438 | 4.44 nM
23 | KELLY (neuroblastoma, adherent) | 0.43 | 421 nM | 0.976 | > 10200 nM | 0.989 | > 10200 nM |  |  | 0.158 | 102 nM | 0.896 | > 102 nM
24 | KG-1 (acute myeloid leukaemia, suspension) | 0.838 | 5900 nM | 0.953 | > 10200 nM | 0.97 | > 10200 nM |  |  | 0.325 | 344 nM | 0.99 | > 102 nM
25 | KLE (endometrium, adherent) | 0.899 | > 10200 nM | 0.927 | > 10200 nM | 0.901 | > 10200 nM |  |  | 0.529 | 1250 nM | 0.809 | 96.4 nM
26 | KMS-12-BM (myeloma, suspension) | 0.781 | 3500 nM | 0.983 | > 10200 nM | 0.978 | > 10200 nM |  |  | 0.316 | 340 nM | 0.493 | 6.15 nM

From the supplement of paper PMC4967469
